Source: PubChem BioAssay AID624296 (National Center for Advancing Translational Sciences (NCATS), 2012)
Among all 350,000 compounds or so, about 9,900 (2.8%) were called active. This list was built around the results that the source calls inconclusive (neither active nor inactive); the mix of calls is not that of the screen. Calls come from the whole dose curve; as a rule, active = well fitted activation curve with a large enough effect; inconclusive = small, poorly fitted or top-dose-only effect; inactive = no such curve, though single readings can be large or run the other way. Potencies of inconclusive entries are left out as doubtful fits.

assay: A quantitative high throughput screen for small molecules that induce DNA re-replication in MCF 10a normal breast cells.; note: nearly all actives have a fitted effect of over 50% in size; for activity, positive = re-replication: % of control where 0% means no effect; details: MCF 10A DNA re-replication, Hoechst nuclear intensity, 48 h; activity, positive = re-replication: at 46.1 µM (top of the series)
Potency is the fitted concentration of half-maximal effect; tags give direction and shape of the fitted curve.

| Compound | Potency | activity, positive = re-replication |
| --- | --- | --- |
| Cc1cc(NC(=O)C(C)SCC(=O)Nc2ccc(Br)cc2Br)no1 (stereo not given) | inactive |  |
| CSc1nc(C)cc(OCC(=O)N/N=C/c2ccccc2O)n1 | active: 5.17 µM |  |
| Cc1ccc2oc(C(=O)N(Cc3nccn3C)C(C)C)c(C)c2c1 | inactive |  |
| O=C(CCC(=O)N1CCCC(Nc2ccccc2)C1)c1ccc(F)cc1 (stereo not given) | inconclusive [activator, partial curve, poor fit] |  |
| Nc1nonc1-c1nc2ccccc2n1CC(=O)N1CCCCC1 | inconclusive [activator, single point] |  |
| CN1CCN(S(=O)C23CC4CC(CC(C4)C2)C3)CC1 (stereo not given) | inactive |  |
| Cc1c(NC(=O)NC(=O)c2ccc(F)cc2)c(=O)n(-c2ccccc2)n1C | inactive |  |
| O=[N+]([O-])c1ccccc1/C=C/C=N/n1c(-c2cc(-c3ccccc3)n[nH]2)n[nH]c1=S | inconclusive [activator, partial curve, poor fit] |  |
| Cc1ccc(Nc2cc(C)nc(N3CCOCC3)n2)c(C)c1 | inconclusive [activator, single point] |  |
| O=C1OC(C(=O)O)Cc2ccccc21 (stereo not given) | active: 18.4 µM |  |
| CCOc1ccc(/C=C/C(=O)c2cc(Br)ccc(=O)c2O)cc1 | active: 9.2 µM |  |
| OC(CNc1ccnc2cc(Cl)ccc12)CNC1CCCCC1 (stereo not given) | inconclusive [activator, partial curve, poor fit] |  |
| COc1ccc(C)cc1NS(=O)(=O)c1ccc(-c2cnc(C3CC3)o2)cc1 |  | inconclusive: 25% [activator] |
| Cc1ccc(NC(=O)COc2coc(CN3CCc4ccccc4C3)cc2=O)c(C)c1 | inconclusive [activator, partial curve, poor fit] |  |
| CC(C)(C)c1ccc(NC(=O)COC(=O)c2ccc(NS(=O)(=O)c3ccc(F)c(F)c3)cc2)cc1 | inconclusive [activator, full curve] |  |
| CNC(=S)N/N=C(\C)c1ccc(C)c(C)c1 | inactive |  |
| CC(OCC(O)CN(C)Cc1nc2ccccc2c(=O)[nH]1)c1ccc(Cl)cc1 (stereo not given) | inactive |  |
| CCc1cc(=O)oc2cc3occ(-c4ccc(OC)c(F)c4)c3cc12 | active: 2.31 µM |  |
| CC(=O)Nc1ccc(SC[C@H](CC(C)C)N2CCN(CCc3ccccc3)CCC2=O)cc1 | inconclusive [activator, partial curve, poor fit] |  |
| O=C(c1cc(-c2ccccc2Cl)nc2ccccc12)N1CCN(c2ccccc2O)CC1 | inconclusive [activator, single point] |  |
| Cc1c(NC(=O)C(C)OC(=O)COc2ccc(C#N)cc2)c(=O)n(-c2ccccc2)n1C (stereo not given) | inactive |  |
| c1ccc(N/N=C2\CCCc3ccccc32)nc1 | inactive |  |
| CN1/C(=C\C(=O)COC(=O)CNC(=O)c2ccc3ccccc3c2)C(C)(C)c2ccccc21 | inconclusive [activator, single point] |  |

| Compound | Potency | activity, positive = re-replication |
| --- | --- | --- |
| Cc1nc([N+](=O)[O-])c(Sc2nc3ccccc3n2C)n1Cc1ccccc1 | active: 14.6 µM |  |
| Cc1ccc(/C=N/NC(=O)CSc2nnc(-c3ccccc3)n2-c2ccc(Cl)cc2)o1 | inactive |  |
| CC(=O)N1CCN(c2cc(N3CCc4ccccc4C3)c(F)cc2[N+](=O)[O-])CC1 | inconclusive [activator, single point] |  |
| CCc1nc2oc(C(=O)c3ccccc3)c(N)c2c2c1COC(C)(C)C2 | inconclusive [activator, partial curve, poor fit] |  |
| O=C1c2ccc([N+](=O)[O-])cc2NC(c2ccco2)N1/N=C/c1ccco1 (stereo not given) | inactive |  |
| Cc1nn(Cc2ccc(C(=O)N3N=C(C(F)F)CC3(O)C(F)F)o2)c(C)c1[N+](=O)[O-] (stereo not given) | inactive |  |
| Cc1nnc(Sc2cc(NCCO)c([N+](=O)[O-])c3nonc23)s1 | inconclusive [activator, single point] |  |
| Cc1c(Cl)cccc1NC(=O)CCS(=O)(=O)c1cccc2nonc12 | inconclusive [activator, partial curve, poor fit] |  |
| CCCCSc1nnc2n(CCc3ccccc3)c(=O)c3c4c(sc3n12)COC(C)(C)C4 | inconclusive [activator, single point] |  |
| O=c1cc(C(F)(F)F)[nH]c2ccc(OC(F)(F)F)cc12 | inconclusive [activator, full curve, poor fit] |  |
| CCOCCCn1c(=S)[nH]c2cc(C(=O)NCCN(CC)CC)ccc2c1=O | inconclusive [activator, partial curve, poor fit] |  |
| Cc1ccc(NC(=O)CC(C)c2ccccc2)cc1S(=O)(=O)N1CCOCC1 (stereo not given) | inconclusive [activator, partial curve, poor fit] |  |
| C[C@@H]1C[C@@H]2OC(=O)[C@]3(C)[C@H]2[C@@H](OC3(C)O)[C@]2(C)C(=O)C=C[C@H]12 (stereo not given in full) | inconclusive [activator, single point] |  |
| Cc1ccc(C(C2C(=O)CC(C)(C)CC2=O)C2C(=O)CC(C)(C)CC2=O)s1 | active: 18.4 µM |  |
| Cc1ccc(NC(=O)CSc2nnc(C)n2-c2ccccc2)cc1 | inactive |  |
| O=C(C1CCCCCC1)N1CC[C@@H](N2CCC(O)CC2)[C@H](O)C1 | inactive |  |
| CCOc1cc(N2CCOCC2)c(OCC)cc1NS(=O)(=O)c1ccc(Cl)s1 | active: 6.31 µM |  |
| CN(CC(=O)Nc1ccccc1Br)C(=O)CCSc1ccc(F)cc1 | inactive |  |
| N#C/C(=C\c1cccc(Oc2ccccc2)c1)C(=O)N1CCOCC1 | inconclusive [activator, single point] |  |
| O=c1c(Sc2ccccc2)c(C(F)(F)F)[nH]n1-c1ccccc1 | inconclusive [activator, partial curve, poor fit] |  |
| COc1ccc(C(=O)NCCC2=CCCCC2)cc1OC1CCN(C(C)C)CC1 | inconclusive [activator, single point] |  |
| CC(C)(C)c1ccc(OCc2ccc(C(=O)Nc3cccnc3)o2)cc1 | active: 23.1 µM |  |
